Test results as given in the supplement of paper PMC9446081.
The campaign covered roughly 39,000 compounds. About 220 (0.56%) showed activity. Some of the results follow.

What follows are compounds tested on Escherichia coli K-12 BW25113 (assay: relative growth (OD600 normalised to plate interquartile mean) (fraction); higher = less growth inhibition, active = 0.2 or less). Conditions: 50 µM; LB; incubation time: overnight (16-24 h).
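Further: static incubation at 37 °C against the wild-type strain, values averaged over two biological replicates.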

SMILES	relative growth
O=C(C[C@H]1CC[C@@H](NC(=O)CN2CCOCC2)[C@H](CO)O1)NCc1cccc(F)c1	inactive: 0.98
CO[C@@H]1CN(C)C(=O)c2ccc(NC(=O)C3CCOCC3)cc2OC[C@@H](C)N(Cc2cccnc2)C[C@H]1C	inactive: 1.02
Cc1ccc(S(=O)(=O)Nc2ccc3c(c2)C(=O)N([C@H](C)CO)C[C@H](C)[C@H](CN(C)Cc2ccc(Oc4ccccc4)cc2)O3)cc1	inactive: 1.02
C[C@@H]1CN([C@H](C)CO)C(=O)c2cccc(NS(=O)(=O)c3cn(C)cn3)c2O[C@@H]1CN(C)S(=O)(=O)c1cccs1	inactive: 0.983
COc1ccc(CN(C)C[C@@H]2Oc3ccc(NC(=O)Nc4cccc5ccccc45)cc3C(=O)N([C@H](C)CO)C[C@H]2C)cc1	inactive: 0.997
C[C@H](CO)N1C[C@H](C)[C@H](CN(C)Cc2ccc3c(c2)OCO3)Oc2c(NC(=O)Nc3ccc(C(F)(F)F)cc3)cccc2C1=O	inactive: 0.988
C[C@@H]1CN([C@@H](C)CO)S(=O)(=O)c2ccc(Br)cc2O[C@H]1CN(C)Cc1cccc(F)c1	inactive: 1.04
C[C@H](CO)N1C[C@H](C)[C@H](CN(C)S(=O)(=O)c2ccccc2)Oc2c(NS(=O)(=O)c3ccccc3)cccc2C1=O	inactive: 1.01
C[C@@H]1O[C@@H](O[C@@H]2[C@@H](O)[C@H](C)O[C@@H](OC[C@H]3O[C@@H](Oc4c(-c5ccc(O)cc5)oc5cc(O)cc(O)c5c4=O)[C@H](O)[C@@H](O)[C@H]3O)[C@@H]2O)[C@H](O)[C@H](O)[C@H]1O	inactive: 1.03
C[C@H](CO)N1C[C@H](C)[C@@H](CN(C)C(=O)c2cnccn2)Oc2ncc(-c3cccc(C#N)c3)cc2C1=O	inactive: 1.01
COc1ccc(S(=O)(=O)N(C)C[C@H]2Oc3c(NC(=O)C4CCOCC4)cccc3C(=O)N([C@@H](C)CO)C[C@H]2C)cc1	inactive: 0.995
CN(C)CCCNC(=O)C[C@@H]1CC[C@H]2[C@@H](COc3ccc(NC(=O)c4ccccc4F)cc3C(=O)N2C)O1	inactive: 0.983
Cc1noc(C)c1S(=O)(=O)Nc1ccc2c(c1)C(=O)N([C@H](C)CO)C[C@@H](C)[C@@H](CN(C)CC1CC1)O2	inactive: 0.989
C[C@@H]1CN([C@H](C)CO)C(=O)c2cc(NC(=O)C3CCCCC3)ccc2O[C@@H](C)CCCCO[C@@H]1CN(C)Cc1ccccc1	inactive: 0.872
O=C(NC1Cc2ccccc2C1)[C@@H]1[C@@H](CO)[C@@H]2Cn3c(cccc3=O)[C@@H]2N1C(=O)c1cnccn1	inactive: 0.983
C[C@H](CO)N1C[C@H](C)[C@@H](CN(C)CC2CC2)OCCCC[C@H](C)Oc2ccc(NS(C)(=O)=O)cc2C1=O	inactive: 0.981
CC(C)NC(=O)N(C)C[C@@H]1Oc2ccc(NS(=O)(=O)c3ccccc3)cc2CC(=O)N([C@H](C)CO)C[C@@H]1C	inactive: 0.996
CN(C)CCNc1cn[nH]c(=O)c1Cl	inactive: 1.04

SMILES	relative growth
C[C@@H]1CN([C@H](C)CO)S(=O)(=O)c2ccc(C#C[C@@H](C)O)cc2O[C@H]1CN(C)C(=O)C1CCCCC1	inactive: 0.985
CNC[C@H]1Oc2ccc(NS(=O)(=O)c3cn(C)cn3)cc2CC(=O)N([C@H](C)CO)C[C@H]1C	inactive: 0.981
COCC#Cc1ccc([C@@H]2[C@H]3CN(C(=O)CN4CCOCC4)CC(=O)N3[C@H]2CO)cc1	inactive: 1.01
O=C(O)CC1CCOCC1	inactive: 0.982
C[C@H]1CN([C@@H](C)CO)C(=O)Cc2cc(NC(=O)Nc3cccc4ccccc34)ccc2O[C@@H]1CN(C)Cc1ccc2c(c1)OCO2	inactive: 1.02
COc1ccc([Si](C)(C)[C@@H]2[C@@H](CC(=O)N3CCC[C@H]3CO)O[C@]3(C(=O)N(Cc4ccc(N5C(=O)c6cccc7cccc5c67)cc4)c4ccccc43)[C@H]2C)cc1	inactive: 1.03
C[C@@H]1CCCCO[C@H](CN(C)S(=O)(=O)c2ccc(F)cc2)[C@@H](C)CN([C@H](C)CO)C(=O)c2cc(NC(=O)Nc3cccc4ccccc34)ccc2O1	inactive: 1.03
C[C@@H]1CCCCO[C@H](CN(C)Cc2ccccc2)[C@@H](C)CN([C@@H](C)CO)C(=O)c2cc(NS(=O)(=O)c3cccs3)ccc2O1	inactive: 0.896
CC(=O)O[C@H]1[C@H](Oc2cc(O)cc(O)c2C(=O)c2cc(O)cc(O)c2)O[C@H](CO)[C@@H](OC(=O)c2ccccc2)[C@@H]1O	inactive: 1
COCCOC(=O)N1C(=O)[C@@]2(c3cc(C#Cc4ccc(OC)cc4)ccc31)[C@H](c1ccc(OCCO)cc1)N1[C@H](c3ccccc3)[C@H](c3ccccc3)OC(=O)[C@H]1[C@@H]2C(N)=O	inactive: 1.09
Cc1noc(C)c1NC(=O)N(C)C[C@@H]1OCCCC[C@@H](C)Oc2ccc(NC(=O)C3CCCCC3)cc2C(=O)N([C@H](C)CO)C[C@H]1C	inactive: 0.963
C[C@@H]1CN([C@H](C)CO)C(=O)Cc2cc(NS(=O)(=O)c3ccc(Cl)cc3)ccc2O[C@H]1CN(C)Cc1ccc(Cl)c(Cl)c1	inactive: 0.976
O=C1N[C@@H]2[C@@H](O)[C@@H](O)[C@H](O)[C@@H](CO)N2C1=O	inactive: 0.983
C[C@@H]1CCCCO[C@@H](CN(C)Cc2ccc(C(=O)Nc3ccccc3N)cc2)[C@@H](C)CN([C@H](C)CO)C(=O)c2cc(NC(=O)Nc3cccc4ccccc34)ccc2O1	inactive: 1.01
C[C@@H]1CCCCO[C@H](CN(C)C(=O)CCC(F)(F)F)[C@H](C)CN([C@H](C)CO)C(=O)c2cc(NS(=O)(=O)c3ccc(F)cc3)ccc2O1	inactive: 1
C[C@H](CO)N1C[C@H](C)[C@H](CN(C)S(=O)(=O)c2ccc(F)cc2)Oc2c(NS(=O)(=O)c3cn(C)cn3)cccc2C1=O	inactive: 0.988
C[C@@H]1CN([C@H](C)CO)C(=O)c2cccc(NC(=O)Nc3cccc4ccccc34)c2O[C@@H]1CN(C)C(=O)NC1CCCCC1	inactive: 1.02
c1ccc(Oc2cccc(Oc3ccccc3)c2)cc1	inactive: 0.931
